Among all 48,000 compounds or so, about 450 (0.94%) were called active. About 19% were inconclusive and are not listed. Calls follow the shape of the dose curve; as a rule, active = well fitted inhibition curve with a large enough effect; inconclusive = small, poorly fitted or top-dose-only effect; inactive = no such curve, though single readings can be large or run the other way. Some of the results follow.
Experiment: Primary qHTS for Identification of Small Molecule Inhibitors of Huntingtin Promoter Activity; also: nearly all actives have a fitted effect of over 50% in size
Conditions: HEK293 HTT promoter firefly luciferase reporter (activity 0% = vehicle and -100% = no light), 24 h; series mostly up to 57.5 µM; activity change, negative = inhibition: at the top concentration
Summary of the method: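 HEK293 luciferase promoter-reporter cells (2,500/well) plated 24 h, then compounds added at up to 57.5 uM final for 24 h at 37 °C. Firefly luminescence by Dual-Glo, normalized to vehicle (0%) and zero RLU (-100%).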

Activity change, negative = inhibition, inactive:
Cc1ccc(F)cc1NC(=O)Cn1c(C)cc(C)c(C#N)c1=O 2.53%
COc1ccc(N2CCN(Cc3nc4c(c(=O)[nH]c(=O)n4C)n3CC(C)C)CC2)cc1 -1.56%
O=C(NCc1cccc(Br)c1)c1ccc(NC(=O)N2CCCCc3ccccc32)cc1 -19.5%
C[C@H](O)[C@@H]1C(=O)N2C(C(=O)O)=C(S[C@@H]3CN[C@H](CNS(N)(=O)=O)C3)[C@@H](C)[C@@H]12 9.52%
Cc1ccccc1C(=O)Nc1c(C)nc2ccccn2c1=O 5.57%
Cn1c(=O)oc2cc(S(=O)(=O)N3CCCC(C(=O)NCCc4ccccc4)C3)ccc21 (stereo not drawn) -17.6%
CC(=O)c1ccc(NS(=O)(=O)c2ccc3[nH]c4c(c3c2)CCCC4)cc1 -0.227%
Cc1ccc(CNC(=O)c2c[nH]n3c(=O)c(Cc4ccc(Cl)cc4)c(C)nc23)cc1 -18.5%
Cc1c(C)c2c(c(C)c1OC(=O)CCC(=O)OCCO)CC[C@@](C)(CCC[C@H](C)CCC[C@H](C)CCCC(C)C)O2 -28.5%
Cc1cccc(CNC(=O)c2ccc3nc(Cc4ccccc4)oc3c2)c1 -21.2%
O=C(NCCc1ccccc1)c1nn(-c2ccc(F)cc2)nc1CO 6.9%
COc1ccc(NC(=O)CSc2nnc(NC(=O)NC3CCCCC3)s2)cc1OC 74.6%
Cc1cccc(NC(=O)CS(=O)(=O)c2cccc3nsnc23)c1 -7.28%
Cc1ccc(CCNC(=O)c2c3c(nc4ccccc24)C(=O)N(C2CCCCC2)C3)cc1 -10.3%
Cc1cccc(NC(=O)COc2ccc(-c3nn(C)c(=O)c4ccccc34)cc2)c1 -30.3%
COC(=O)c1ccccc1NC(=O)CSc1nc(=O)cc(N)n1-c1ccccc1 -15.5%
Cc1ccc(NC(=O)Cn2c(=O)n(Cc3nc(-c4ccccc4)no3)c(=O)c3ccccc32)cc1C -22.8%
Cc1ccc(CNC(=O)c2c(-c3ccccc3Cl)noc2C)o1 -9.66%
Cc1coc2cc3oc(=O)c(CC(=O)NCc4cccc(Cl)c4)c(C)c3cc12 -25.3%
COc1cc(OC)c(NC(=O)CN2CCCN(Cc3ccccc3C)S2(=O)=O)cc1Cl 0%
CN1CC(=O)NC1=N 14.1%
COc1cccc(Cn2c(=O)n(CCc3ccccc3)c(=O)c3c2c2cc(OC)ccc2n3C)c1 -1.01%
Cc1ccc(Cl)cc1NC(=O)C1CCN(S(=O)(=O)c2cccc3nonc23)CC1 -11.4%
COc1ccc(NC(=O)c2c(NC(=O)c3ccncc3)sc3c2CCC(C(C)(C)C)C3)cc1 (stereo not drawn) -29.4%
COc1cc(NC(=O)C(Cc2ccccc2)NS(=O)(=O)c2cccc3nsnc23)cc(OC)c1 (stereo not drawn) -28.9%
Cc1cccc(NC(=O)CSc2nc3ccccc3nc2N2CCCCC2)c1C -9.18%
CC(=O)SC[C@@H](Cc1ccccc1)C(=O)NCC(=O)OCc1ccccc1 3.69%
O=C(Cn1ccn(-c2ccc(F)c(F)c2)c(=O)c1=O)NCCc1ccccc1 -15.8%
CC(=O)c1cccc(NC(=O)CCc2c(C)nc3c(c(C)nn3-c3ccccc3)c2C)c1 -23.9%
Cc1cc(C)cc(NC(=O)c2cc(S(=O)(=O)N3CCC(C)CC3)cn2C)c1 -20.4%
CCCCNc1nc(Oc2ccc(=O)n(C)n2)nc(N2CCOCC2)n1 28.5%
CCn1c(-c2nonc2N)nc2cncc(CNC3CCNCC3)c21 -3.91%
Cc1cc(C)c2c(=O)cc(C(=O)Nc3c(C)n(C)n(-c4ccccc4)c3=O)oc2c1 -5.46% [at 11.5 µM]
O=C(CCC1N=C2c3ccccc3N=C(SCc3cccc(Cl)c3)N2C1=O)N1CCN(c2ccccc2)CC1 (stereo not drawn) -13.7%
CCOc1ccc(-c2cc3c(=O)n(CC(=O)Nc4cc(F)ccc4C)ccn3n2)cc1 37%
COc1ccc(C(=O)c2c(N)c(-c3nc(-c4ccc(OC)cc4)cs3)c3ccccn23)cc1 -7.99%
COc1cc2[nH]c(=O)n(CCC(=O)N3CCN(c4ccc(Cl)cc4)CC3)c(=O)c2cc1OC 0.394%
CCn1nc(-c2ccccc2)c(-c2ccccc2)c(C(=O)Nc2ccccc2C#N)c1=O -11.9%
Cc1cc(C)c(/C=C/c2onc(C)c2S(=O)(=O)N2CCC(C(=O)NCc3ccccc3Cl)CC2)c(C)c1 -13.4%
COc1ccc(S(=O)(=O)c2c(O)c3ccc(C(=O)NCc4ccc(Cl)cc4)cc3[nH]c2=O)cc1 -2.41%
Cc1csc2nc(COc3ccc(NC(=O)COc4ccccc4)cc3)cc(=O)n12 4.74%
CCN(Cc1ccccc1)C(=O)Cn1c(=O)n(-c2cccc(C)c2)c(=O)c2c1c1cc(C)ccc1n2C -18.3%
CC(=O)N(O)CCCCCNC(=O)CCC(=O)N(O)CCCCCNC(=O)CCC(=O)N(O)CCCCCN -21.8%
Cc1ccc2oc3c(c(=O)c2c1)C(c1ccc([N+](=O)[O-])cc1)N(CCCN1CCOCC1)C3=O (stereo not drawn) -6.76%
C=CCc1ccccc1OCc1nc2ccccc2n1CC -31.7%
O=C(O)Cc1cccc(-c2cc(CCCCCCc3ccc(O[C@H]4O[C@H](CO)[C@@H](O)[C@H](O)[C@@H]4O)c(-c4cccc(CC(=O)O)c4)c3)ccc2O[C@H]2O[C@H](CO)[C@@H](O)[C@H](O)[C@@H]2O)c1 9.75% [at 0.739 µM]
O=C(CN1C(=O)c2cccnc2Oc2ccc(Cl)cc21)NCCc1ccccc1 14.7%
CC(C)(C)C(=O)Cn1c(=O)n(-c2ccccc2)c(=O)c2c3c(sc21)CCC3 -6.12%
Cc1ccc(NC(=O)CN2C(=O)COc3ccc(S(=O)(=O)NC4CCCC4)cc32)cc1Cl -24.8%
CCCCNc1ccc(-c2nc(-c3ccco3)no2)cc1[N+](=O)[O-] 46.6%
CCOc1ccc(C(=O)Nc2cccc(NC(=O)c3ccc(C(C)(C)C)cc3)c2)cc1Br 8.25%
Cc1cccc(N2CCN(S(=O)(=O)c3cc(Cl)ccc3Cl)CC2)c1C -0.445%
Cn1c2ccccc2c2cnn(CC(=O)N3CCN(c4cccc(C(F)(F)F)c4)CC3)c(=O)c21 3.74%
COc1ccc(-c2nc(SCC(=O)Nc3ccc4c(c3)OCCO4)c(-c3ccc(F)cc3)[nH]2)cc1OC -16.4%
COc1ccc(CC(=O)NCc2ccc3c(c2)CCN3C(C)=O)cc1 -5.14%
Cc1ccc(-c2ccccc2C#N)cc1 5.19%
CC1=C(C(N)=O)C(c2ccc(F)cc2)n2nc(-c3ccccc3Cl)nc2N1 (stereo not drawn) -15.1%
Cc1ccc(NC(=O)CCCn2c(=O)c3cccn3c3ccccc32)cc1C -15.3%
CC(C)CC(=O)n1nc(-c2cccnc2)nc1NCc1ccc(F)cc1 -37.9%
COCCCNC(=O)c1ccc(-n2c(-c3ccccc3)cc3c2CCCC3)cc1 15.6%
O=C(OCc1cc(=O)n2nc(C3CCCCC3)sc2n1)c1ccccc1Cl -1.13%
COc1cccc(-c2nnc(SCC(=O)N3CCC(C)CC3)o2)c1 3.44%
Cc1cc(C)n(-c2nc3ccccc3nc2Nc2ccc(Cl)c(C(=O)OC(C)C)c2)n1 12%
COc1ccc(OCC(=O)OCc2cc(=O)n3nc(-c4cccs4)sc3n2)cc1 11.2%
OC[C@H]1O[C@@H]2O[C@H]3[C@H](O)[C@@H](O)[C@@H](O[C@H]4[C@H](O)[C@@H](O)[C@@H](O[C@H]5[C@H](O)[C@@H](O)[C@@H](O[C@H]6[C@H](O)[C@@H](O)[C@@H](O[C@H]7[C@H](O)[C@@H](O)[C@@H](O[C@H]8[C@H](O)[C@@H](O)[C@@H](O[C@H]1[C@H](O)[C@H]2O)O[C@@H]8CO)O[C@@H]7CO)O[C@@H]6CO)O[C@@H]5CO)O[C@@H]4CO)O[C@@H]3CO 6.92%
Cc1ccc(Cl)cc1NC(=O)Cn1c(=O)n(Cc2ccccc2)c(=O)c2oc3ccccc3c21 -9.86%
Cc1ccc(CNC(=O)CCc2c(C)nc3nc(C)nn3c2C)cc1 -9.61%
Cc1ccc(OCC(=O)Nc2cccc(OCc3cc(=O)n4cccc(C)c4n3)c2)cc1C 6.11%
Cc1ccc(CCNC(=O)CCCn2c(=O)c3ccccc3n(Cc3ccccc3C#N)c2=O)cc1 -15.3%
CCn1cc2c(n1)-c1c(oc(C(=O)Nc3cccc(C)c3C)c1C)CC2 67%
CCc1ccc(O)c(C(=O)c2cnc3cc(-c4ccc(C)cc4)nn3c2)c1 -1.13%
N#Cc1c(C(F)(F)F)cc(-c2cccs2)nc1SCC(=O)Nc1ccccc1F -24.8%
Cc1cc(C)cc(NC(=O)CSc2oc(-c3ccccc3)nc2S(=O)(=O)c2ccccc2)c1 -22%
O=C1Cc2cc(CCN3CCN(c4nsc5ccccc45)CC3)c(Cl)cc2N1
CCOc1ccc(-c2cc(C(=O)NCc3ccccc3Cl)c3ccccc3n2)cc1 -2.22%
CCn1cc(S(=O)(=O)c2ccccc2)c(=O)c2cc(F)c(N3CCCC3)cc21 -22.6%
Cc1cc(C)cc(NS(=O)(=O)c2ccc3[nH]cc(C(=O)NC4CCCCC4)c(=O)c3c2)c1 -29.8%
Cc1cc2nc(-c3cccc(NC(=O)C(C)C)c3C)oc2cc1C 18.1%
O=C(c1cc(-c2ccccc2O)on1)N1CCCCC1 80.3%
CCc1c(C)nc(SCc2nc(-c3ccccc3)no2)[nH]c1=O 9.03%
O=C(c1ccc2c(c1)N(Cc1ccccc1F)C(=O)c1ccccc1S2(=O)=O)N1CCN(c2ccccc2F)CC1 -6.35%
CCN(CC)C(=O)c1sc2c(c1C)c(=O)n(CCc1ccccc1)c(=O)n2Cc1ccc(F)cc1Cl 0.252%
CCOc1ccc(C(=O)Nc2ccc3nn(-c4ccc(OC)c(Cl)c4)nc3c2)cc1 -13.4%
COc1cc(S(N)(=O)=O)cc(C(=O)O)c1OC -0.905%
CCN[C@H]1C[C@H](C)S(=O)(=O)c2sc(S(N)(=O)=O)cc21
COc1ccc2cc(-c3nc(Cl)c4c5c(sc4n3)CC(C)CC5)c(=O)oc2c1 (stereo not drawn) -13.4%
O=C(Cn1c(=O)n(-c2cccc(Cl)c2)c(=O)c2sc3ccccc3c21)NC1CCCCC1 -14.5%
CNC(=O)C1CCC(Cn2c(=O)c3sccc3n(CC(=O)NCc3ccc(OC)cc3)c2=O)CC1 (stereo not drawn) -20.1%

Source: PubChem BioAssay AID1508623 (National Center for Advancing Translational Sciences (NCATS), 2021)
